Measured values published in the supplement of paper PMC9446081.
About 220 (0.56%) of roughly 39,000 compounds showed activity. This is one part of the list.

Tested on: Escherichia coli K-12 BW25113
Experiment: relative growth (OD600 normalised to plate interquartile mean) (fraction); higher = less growth inhibition, active = 0.2 or less
Details: 50 µM; LB; incubation time: overnight (16-24 h)
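Further: static incubation at 37 °C against the wild-type strain, values averaged over two biological replicates.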

SMILES | relative growth
O=C(Nc1cc(C(F)(F)F)cc(C(F)(F)F)c1)Nc1c(Br)cc(Br)cc1-c1nn[nH]n1 | inactive: 0.921
COc1ccc(S(=O)(=O)N(C)C[C@H]2Oc3ccc(N(C)C)cc3CC(=O)N([C@@H](C)CO)C[C@@H]2C)cc1 | inactive: 1.02
C[C@@H]1CN([C@H](C)CO)C(=O)Cc2cc(NC(=O)Nc3ccc4c(c3)OCO4)ccc2O[C@@H]1CN(C)Cc1ccc(C(=O)Nc2ccccc2N)cc1 | inactive: 0.98
CCOc1cc(C(C)(C)C)ccc1C1=N[C@@](C)(c2ccc(Cl)cc2)[C@@](C)(c2ccc(Cl)cc2)N1C(=O)N1CCN(CCCS(C)(=O)=O)CC1 | inactive: 1.03
Cc1ccc(S(=O)(=O)Nc2ccc3c(c2)C(=O)N([C@@H](C)CO)C[C@H](C)[C@H](CN(C)Cc2ccc(C(=O)O)cc2)OCCCC[C@H](C)O3)cc1 | inactive: 1
Cc1cc(C(=O)O)n[nH]1 | inactive: 1.02
C[C@H](CO)N1C[C@H](C)[C@@H](CN(C)S(=O)(=O)c2ccc(F)cc2)Oc2ccc(N(C)C)cc2CC1=O | inactive: 0.999
Cl.N=C(N)NC(=O)c1nc(Cl)c(N)nc1N | inactive: 1.02
Cc1cccc(S(=O)(=O)N2C[C@@H](O)COC[C@H]3O[C@H](CC(=O)NCc4ccc5c(c4)OCO5)CC[C@@H]32)c1 | inactive: 1.02
C[C@H](CO)N1C[C@H](C)[C@@H](CN(C)C(=O)C2CCCCC2)OCCCC[C@H](C)Oc2ccc(NC(=O)C3CCCCC3)cc2C1=O | inactive: 1.01
CNC(=O)C[C@@H]1CC[C@@H]2[C@H](COC[C@@H](O)CN2C(=O)Nc2cccc(OC)c2)O1 | inactive: 1.04
C[C@@H]1CN([C@@H](C)CO)C(=O)c2cc(NS(=O)(=O)c3cn(C)cn3)ccc2O[C@@H]1CN(C)C(=O)NC1CCCCC1 | inactive: 0.975
C[C@@H]1CCCCO[C@@H](CN(C)C(=O)Nc2ccccc2)[C@H](C)CN([C@H](C)CO)C(=O)c2cc(NC(=O)NC3CCCCC3)ccc2O1 | inactive: 1.03
C[C@@H]1CCCCO[C@H](CN(C)C(=O)Nc2ccc3c(c2)OCO3)[C@H](C)CN([C@@H](C)CO)C(=O)c2cc(NS(=O)(=O)c3cccs3)ccc2O1 | inactive: 0.925
C[C@@H]1CCCCO[C@H](CN(C)Cc2ccc3c(c2)OCO3)[C@H](C)CN([C@@H](C)CO)C(=O)c2cc(NC(=O)Nc3ccc(C(F)(F)F)cc3)ccc2O1 | inactive: 1.05
Cc1noc(C)c1NC(=O)N(C)C[C@H]1Oc2ccc(NC(=O)C3CC3)cc2C(=O)N([C@H](C)CO)C[C@H]1C | inactive: 0.96
C[C@@H]1CCCCO[C@@H](CN(C)C(=O)c2ccccc2)[C@@H](C)CN([C@H](C)CO)C(=O)c2cc(NC(=O)C3CCCCC3)ccc2O1 | inactive: 0.993
C[C@@H]1CN([C@H](C)CO)C(=O)c2cc(C#Cc3cccnc3)cnc2O[C@@H]1CN(C)Cc1ccc(F)cc1 | inactive: 0.982
CC(C)(C)[S@](=O)N1Cc2cc(C(=O)NCCc3ccncc3)nc(-c3cccc(-c4ccccc4)c3)c2[C@@H]1CCO | inactive: 0.996
COCCNC(=O)C[C@H]1C[C@H]2c3cc(NC(=O)COC)ccc3O[C@H]2[C@H](CO)O1 | inactive: 0.984

SMILES | relative growth
COc1ccc(S(=O)(=O)Nc2ccc3c(c2)C(=O)N([C@@H](C)CO)C[C@@H](C)[C@@H](CN(C)C(=O)c2ccccc2)OCCCC[C@@H](C)O3)cc1 | inactive: 1.01
CC(C)NC(=O)Nc1ccc2c(c1)C(=O)N([C@@H](C)CO)C[C@@H](C)[C@H](CN(C)C(=O)Nc1ccc(C(F)(F)F)cc1)OCCCC[C@H](C)O2 | inactive: 1.02
Cc1noc(C)c1S(=O)(=O)Nc1ccc2c(c1)C(=O)N([C@H](C)CO)C[C@@H](C)[C@H](CN(C)S(=O)(=O)c1cn(C)cn1)OCCCC[C@@H](C)O2 | inactive: 0.992
C[C@@H]1CN([C@H](C)CO)C(=O)c2c(c3ccccc3n2C)-c2ccccc2CO[C@@H]1CN(C)C(=O)NC1CCCCC1 | inactive: 1.02
C[C@@H]1CCCCO[C@@H](CN(C)C)[C@@H](C)CN([C@H](C)CO)C(=O)c2cc(NS(=O)(=O)c3cn(C)cn3)ccc2O1 | inactive: 1
NC[C@@H](CO)Cc1ccsc1 | inactive: 1.02
COc1cccc(C#Cc2ccc3c(c2)O[C@H](CN(C)C(C)=O)[C@H](C)CN([C@H](C)CO)S3(=O)=O)c1 | inactive: 1.03
C[C@H]1CC[C@@H]2N(C1)C[C@@H]1[C@H]([C@@H](O)[C@H](O)[C@]3(O)[C@H]1C[C@@]14O[C@]5(O)[C@@H](C[C@@H](O)[C@@H]31)[C@]4(C)CC[C@@H]5O)[C@]2(C)O | inactive: 0.987
C[C@@H]1CCCCO[C@H](CN(C)Cc2ccc(C(=O)O)cc2)[C@H](C)CN([C@@H](C)CO)C(=O)c2cc(NC(=O)Nc3ccc(C(F)(F)F)cc3)ccc2O1 | inactive: 1.01
C[C@@H]1CN([C@@H](C)CO)C(=O)Cc2cc(NS(C)(=O)=O)ccc2O[C@H]1CN(C)Cc1ccc(C(=O)Nc2ccccc2N)cc1 | inactive: 1
O=C(O)CNC(=O)c1ccc(S(=O)(=O)N2CCOCC2)cc1 | inactive: 0.971
CC(=O)N[C@@H](CC(C)C)C(=O)O | inactive: 0.912
N[C@@H](C(=O)N[C@@H]1C(=O)N2C(C(=O)O)=C(Cl)CC[C@H]12)c1ccccc1 | active: 0.0311
C[C@H]1CN([C@@H](C)CO)C(=O)Cc2cc(NS(=O)(=O)c3cccs3)ccc2O[C@@H]1CN(C)Cc1ccc(Oc2ccccc2)cc1 | inactive: 1
C[C@@H]1CCCCO[C@@H](CN(C)C(=O)Cc2ccccc2)[C@@H](C)CN([C@H](C)CO)C(=O)c2cc(NS(=O)(=O)c3cccs3)ccc2O1 | inactive: 1.01
CCN(CC)CCC/N=C1/N=C(CC(=O)/C=C/c2ccc(O)c(OC)c2)C[C@@H](c2ccc(O)c(OC)c2)S1 | inactive: 1.01
CN(C)C(=O)c1cccc(-c2cccc(-c3nc(C(=O)NC4CCCCC4)cc4c3[C@@H](CCO)N([S@@](=O)C(C)(C)C)C4)c2)c1 | inactive: 1.04
C[C@H](CO)N1C[C@H](C)[C@@H](CN(C)S(=O)(=O)c2ccc(F)cc2)OCCCC[C@H](C)Oc2ccc(NS(=O)(=O)c3cn(C)cn3)cc2C1=O | inactive: 1.03
C[C@@H]1CCCCO[C@@H](CN(C)C(=O)Nc2cccc3ccccc23)[C@H](C)CN([C@H](C)CO)C(=O)c2cc(NS(=O)(=O)c3ccc(F)cc3)ccc2O1 | inactive: 1.04
Cc1noc(C)c1NC(=O)N(C)C[C@H]1Oc2ccc(NC(=O)NC(C)C)cc2C(=O)N([C@H](C)CO)C[C@@H]1C | inactive: 0.973

SMILES | relative growth
C[C@H]1CN([C@@H](C)CO)C(=O)Cc2cc(NC(=O)Cn3cnnn3)ccc2O[C@@H]1CN(C)C(=O)Nc1ccc2c(c1)OCO2 | inactive: 0.959
C[C@H](CO)N1C[C@H](C)[C@@H](CN(C)S(=O)(=O)c2ccc(Oc3ccccc3)cc2)OCc2cn(nn2)CCCC1=O | inactive: 1.01
O=C(CN1CCOCC1)NCC[C@@H]1CC[C@@H](NC(=O)Cc2ccccn2)[C@@H](CO)O1 | inactive: 0.999
COc1ccc(S(=O)(=O)Nc2ccc3c(c2)C(=O)N([C@H](C)CO)C[C@H](C)[C@@H](CN(C)C(=O)Nc2ccc(F)cc2)OCCCC[C@H](C)O3)cc1 | inactive: 1.01
N=C(NO)NCC[C@H](N)C(=O)O | inactive: 1.01
Cc1ccc(S(=O)(=O)Nc2cccc3c2O[C@H](CN(C)Cc2ccc(Oc4ccccc4)cc2)[C@H](C)CN([C@H](C)CO)C3=O)cc1 | inactive: 1.04
C[C@@H]1CN([C@H](C)CO)C(=O)c2cc(NS(=O)(=O)c3ccccc3)ccc2O[C@@H](C)CCCCO[C@H]1CN(C)C(=O)c1ccccc1 | inactive: 0.975
C[C@H](CO)N1C[C@H](C)[C@H](CN(C)C(=O)Nc2cccc3ccccc23)OCCCC[C@H](C)Oc2ccc(NC(=O)Nc3cccc4ccccc34)cc2C1=O | inactive: 1.05
Cc1noc(C)c1NC(=O)N(C)C[C@@H]1Oc2ccc(NS(=O)(=O)c3cn(C)cn3)cc2CC(=O)N([C@H](C)CO)C[C@@H]1C | inactive: 0.987
C[C@H]1CN([C@@H](C)CO)C(=O)c2cccc(NC(=O)Nc3ccc(F)cc3)c2O[C@@H]1CN(C)CC1CCCCC1 | inactive: 0.975
Cn1nnnc1SCC1=C(C(=O)[O-])N2C(=O)C(NC(=O)C(O)c3ccccc3)C2SC1.[Na+] (stereo not drawn) | active: 0.0463
CC(C)NC(=O)N(C)C[C@H]1Oc2c(NS(=O)(=O)c3cn(C)cn3)cccc2C(=O)N([C@H](C)CO)C[C@@H]1C | inactive: 1.01
COC(=O)CC1(N)CCCCC1 | inactive: 1.03
C[C@@H]1CN([C@@H](C)CO)C(=O)Cc2cc(NC(=O)CCC(F)(F)F)ccc2O[C@H]1CN(C)S(=O)(=O)c1ccccc1 | inactive: 0.979
C[C@@H]1COC(=O)[C@H](Cc2ccc(F)cc2)CC=CC[C@@H](CC(=O)N[C@@H](CO)Cc2ccccc2)C(=O)N1 | inactive: 1.02
COc1ccc(S(=O)(=O)N2C[C@@H](O)COC[C@@H]3O[C@@H](CC(=O)NCCCN(C)C)CC[C@H]32)cc1 | inactive: 1
COc1ccc(NC(=O)Nc2ccc3c(c2)CC(=O)N([C@@H](C)CO)C[C@H](C)[C@@H](CN(C)Cc2ccc(C(F)(F)F)cc2)O3)cc1 | inactive: 1.03
Cc1noc(C)c1S(=O)(=O)Nc1ccc2c(c1)C(=O)N([C@H](C)CO)C[C@H](C)[C@H](CN(C)C(=O)Nc1ccc(F)cc1)OCCCC[C@H](C)O2 | inactive: 1.02
